Data reported in PubChem BioAssay AID1963576 (National Center for Advancing Translational Sciences (NCATS), 2024).
The whole screen tested about 46,000 compounds, of which about 60 (0.1%) were called active. Inconclusive results (about 3%) are left out. Calls follow the shape of the dose curve; as a rule, active = well fitted inhibition curve with a large enough effect; inconclusive = small, poorly fitted or top-dose-only effect; inactive = no such curve, though single readings can be large or run the other way. This is one part of the list.

Assay: Primary qHTS assay for Inhibitors of ovarian cancer metastasis using an organotypic tumor microenvironment (TME) model. Also: nearly all actives have a fitted effect of over 65% in size.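 As to activity change, negative = inhibition: plate controls were DMSO wells for no effect and tomatine positive control wells for full effect.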
Conditions: SKOV3ip1-GFP adhesion/invasion on 3D omental model, fluorescence; series mostly up to 45.8 µM; activity change, negative = inhibition: at the top concentration
Outline: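 Primary human omental fibroblast/mesothelial 3D culture pre-formed 48 h. SKOV3ip1-GFP cells added with compounds (0.36-46 umol/L), incubated 2 h RT/16 h 37 C, fixed; GFP cells quantified at 488/509 nm.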

Activity change, negative = inhibition, inactive:
CCOc1cccc(CNC(=O)c2ccc(N3CCCC3)c(NC(=O)NCc3ccc(F)cc3)c2)c1 19.6%
Nc1c(-c2nc(-c3cccs3)no2)nnn1-c1ccccc1Cl -0.61%
O=C(Nc1cccc(C(=O)OCc2cc(=O)n3nc(C4CC4)sc3n2)c1)c1ccccc1 -8.9%
Cc1cc(C)cc(OC(C)C(=O)Nc2nonc2-c2ccc(Br)cc2)c1 (stereo not given) -6.37%
CCOc1ccc(-c2nonc2NC(=O)c2oc3c(C)c(C)ccc3c2C)cc1OCC 0.331%
Cc1ccc(C)c(Cn2c3ccccc3c3cnn(CC(=O)NCCCc4ccccc4)c(=O)c32)c1 -1.83%
Cc1ccc(-n2nc(C)c(C(=O)NCCCN3CCN(c4ccc(F)cc4)CC3)c2-n2cccc2)cc1 -18.9%
Cc1ccccc1CS(=O)(=O)CC1Nc2ccc(C(=O)NCc3ccc(Cl)cc3)cc2NC1=O (stereo not given) 2.76%
CCN(CC)CCOC(=O)c1ccc(NC(=O)Cn2ncc3c([nH]c4ccc(C)cc43)c2=O)cc1 8.76%
COc1ccccc1-c1nc2c3c(-c4ccccc4)c(-c4ccccc4)oc3ncn2n1 0.275%
COCCn1c(CNC(=O)c2ccc(C)cc2)nc2cccnc21 -0.0494%
COc1ccc(-n2ncc(C(=O)Nc3ccc4c(c3)OCCO4)c2C2CCN(C(=O)OC(C)(C)C)CC2)cc1 0.323%
COc1ccccc1N1CCN(C(=O)Cn2c(=O)n3nc(-c4cccc(C)c4)nc3c3ccccc32)CC1 7.42%
Cc1ccc(Nc2sc(C(=O)c3ccccc3)c(N)c2S(=O)(=O)c2ccccc2)c(C)c1 5.42%
Cc1nn2c(=O)cc(COC(=O)c3ccc(NC(=O)c4cccs4)cc3)nc2s1 -4.44%
O=C(Cn1cc(S(=O)(=O)Cc2ccccc2F)c2ccccc21)NCc1ccccc1Cl -6.17%
CCOC(=O)c1c(NC(=O)C(C)Oc2ccc(Cl)c(C)c2)sc2c1CCCC2 (stereo not given) -22.5%
CC(C)CSc1ccccc1NC(=O)c1sc2nc(-c3ccncc3)ccc2c1N 9.35%
Cc1ccc(S(=O)(=O)N2CCC(C(=O)Nc3ccc(Oc4ccccc4)cc3)CC2)cc1 0.168%
O=C(NCCc1ccccc1)c1ccc2c(c1)CCN2S(=O)(=O)c1ccccc1 -2.86%
CC(C)Cn1c(=O)c2ccccc2n2c(CCC(=O)Nc3ccc(F)c(F)c3)nnc12 -0.638%
CCN(C(=O)Cn1nc(Cc2ccncc2)c2ccccc2c1=O)c1cccc(C(F)(F)F)c1 0.0477%
COc1ccc(NC(=O)CCN2CCN(CCO)CC2)cc1 -4.6%
Cc1cccc(N2CCN(C(=O)c3ccc(NC(=O)c4nsc5ccccc45)cc3)CC2)c1C 3.36%
Cc1nc2c(C(=O)NCCc3ccccc3)c[nH]n2c(=O)c1Cc1ccc(F)cc1Cl 8.13%
Cc1ccc(NC(=O)Cn2nnc(-c3nc(-c4ccc(Cl)cc4)no3)c2N)cc1C 1.37%
CCOc1ccc(C(=O)Nc2ccc(-c3nc4ccccc4s3)c(C)c2)cc1OCC 9.14%
O=[N+]([O-])c1cc(-c2nc(-c3ccccc3)no2)ccc1NCCc1ccccc1 -2.02%
CCOc1ccc(N2CC(c3nc4ccccc4n3Cc3cccc(C)c3)CC2=O)cc1 (stereo not given) -1.76%
CCCn1c(CCC(=O)Nc2cccc(CC)c2)nc2cccnc21 -16.7%
Cc1ccc2nc(N(Cc3cccnc3)C(=O)c3cccs3)sc2c1 -3.58%
Cc1ccccc1CNC(=O)c1ccc(CS(=O)Cc2ccc(Cl)cc2)o1 (stereo not given) -5.67%
COc1ccc(-n2c(=O)c3sc4ccccc4c3n(CC(=O)NCc3ccccc3)c2=O)cc1 3.38%
Cc1ccc(CCNC(=O)c2ccc3c(c2)c(C)c(C)n3Cc2ccccc2)cc1 3.78%
CCOc1ccccc1C(=O)Nc1cc2c(cc1N1CCOCC1)n(C)c(=O)n2C 1.75%
Cc1ccc(OCC(=O)Nc2cc(-c3cccc(C)c3)nn2-c2ccccc2)cc1 -14.8%
CCc1nc2c(cnn2-c2ccc(Cl)cc2)c(=O)n1-c1ccc(OC)c(Cl)c1 -6.03%
COc1ccc(Cl)cc1NC(=O)CSc1nc(-c2ccccc2)c2ccccc2n1 -12.1%
CCn1c(CC2C(=O)N(C)c3ccccc32)nc2ccccc2c1=O (stereo not given) -3.33%
CCOc1ccc(CNC(=O)C2CCN(Cc3cc4ccccc4n3Cc3ccccc3C)CC2)cc1 -4.47%
CN(C)CCOC(c1ccccc1)c1ccccc1 -1.69%
Cc1nn(C(C)(C)C)c(OC(=O)c2cccc(F)c2)c1Sc1ccccc1 -1.88%
CC(C)CC(C(=O)NCCc1ccccc1)N1Cc2ccccc2C1=O (stereo not given) -16.6%
Cc1c(CNC2CCCCCC2)c(C(=O)O)c(C)n1Cc1ccc(F)cc1 9.59%
C[C@H]1C[C@@H]2[C@@H]([C@@H](O)C[C@@]3(C)[C@H]2CC[C@]3(O)C(=O)CO)[C@@]2(C)C=CC(=O)C=C12 -9.24%
CC(=O)Nc1ccc2nc(SCCOc3ccccc3)sc2c1 0.319%
Cc1ccc(NC(=O)C(=O)NCCCN2CCOCC2)cc1C 4.78%
Cc1cc(C)cc(NC(=O)CCS(=O)(=O)c2ccc3c(c2)oc(=O)n3C)c1 9.53%
O=C(NCc1ccccc1)N1CCc2c(sc3c2CCCC3)C1c1ccccc1 (stereo not given) -26.1%
COC(=O)c1ccc2c(=O)n(CCCCCC(=O)NC(C)C)c(=O)[nH]c2c1 15.7%
COc1ccccc1CNC(=O)c1ccc(Nc2nc3ccccc3n3nnnc23)cc1 -4.96%
CCOc1ccc(/C=C/c2nc3ccccc3n2S(=O)(=O)c2cccc(Cl)c2)cc1 -14.4%
CC(C)c1ccc(/C=C(\C#N)c2nc(-c3cc4ccccc4oc3=O)cs2)cc1 0.503%
CC1CCN(S(=O)(=O)c2ccc3nc(Nc4cccc(C(F)(F)F)c4)ccc3c2)CC1 -18.4%
Cc1ccc(CNC(=O)c2nc(S(=O)(=O)Cc3ccc(C)cc3)ncc2Cl)cc1 -9.4%
CCOC(=O)C1(C)C=C(Nc2cccc(C)c2)C(=O)N1c1ccccc1 (stereo not given) -20.4%
Cc1cc(C)cc(NC(=O)CCCn2nc(C)c3c(C)n(-c4ccccc4)nc3c2=O)c1 -9.77%
COc1cc(NC(=O)CCc2c(C)nc3c4c(C)cc(C)nc4nn3c2C)cc(OC)c1 6.64%
COC(=O)c1ccc(Nc2ncnc3c2cnn3-c2ccccc2)cc1 6.64%
COc1cc(Cl)c(C)cc1NS(=O)(=O)c1c(C)nc2sccn2c1=O 1.34%
CCOC(=O)CCn1cnc2onc(-c3ccccc3Cl)c2c1=O -7.51%
COc1cc(OC)cc(-c2cc3nc(C)c(CCC(=O)Nc4ccc(F)c(Cl)c4)c(C)n3n2)c1 -3.39%
O=C1c2[nH]nc(-c3ccccc3O)c2C(c2ccc(Cl)cc2)N1CCc1ccccc1 (stereo not given) -6.32%
CC(C)c1ccc(NC(=O)C(NS(=O)(=O)c2ccc3c(c2)CCC(=O)N3)c2ccccc2)cc1 (stereo not given) 2.46%
CCOc1ccccc1Nc1ncnc2c1c(-c1ccccc1)cn2-c1ccc(OC)cc1 -5.75%
CCOCN(C(=O)Cn1c(CC(C)C)nc2ccccc21)c1c(C)cccc1CC 2.47%
O=C(CSCc1cnn(-c2ccccc2)c1-n1cccc1)NCc1ccccc1Br 0.114%
CCc1ccc(NC(=O)COCc2cc(-c3ccc(F)cc3)on2)cc1 0.621%
Cc1ccc(-c2cn3cccnc3n2)cc1NC(=O)Cc1ccccc1 -1.68%
Cc1cc(C)cc(NC(=O)c2ncn(-c3ccccc3)n2)c1 6.14%
Cc1ccc(-c2nn3c(=O)cc(CN4CCN(S(=O)(=O)c5ccc(Cl)cc5)CC4)nc3s2)cc1 7.58%
COc1ccc(CNC(=O)c2ccc3c(c2)CCN3S(=O)(=O)c2ccc(Cl)cc2)cc1 11.1%

outcome, inactive:
Cc1ccc(Cl)cc1N(C)C(=O)Cn1nc(Cc2cccnc2)c2ccccc2c1=O
Cc1ccccc1NC(=O)CSc1nnc(C)c(=O)[nH]1
CCCSc1ncc(Cl)c(C(=O)Nc2c(C(=O)c3ccc(F)cc3)oc3ccccc23)n1
COc1ccc(CCNC(=O)c2c(C)nn(-c3ccc(F)cc3)c2-n2cccc2)c(OC)c1OC
Cc1cc(C)cc(NC(=O)CN2C(=O)CCc3cc(S(=O)(=O)N4CCCCC4)ccc32)c1
CCN(c1cc(C)cc(C)c1)S(=O)(=O)c1nnc(NC(=O)c2ccco2)s1
COc1ccc2[nH]cc(CCNC(=O)c3cnn(-c4ccccc4Cl)c3C3CCN(C(=O)OC(C)(C)C)CC3)c2c1
O=C(Nc1cccc(F)c1)[C@@H](c1ccccc1)N1Cc2ccccc2C1=O
CCc1ccc(NC(=O)CCCn2nc(C)c3c(C)n(-c4ccccc4)nc3c2=O)cc1
CCCSc1nnc2n(-c3ccc(OC)cc3)c(=O)c3c4c(sc3n12)COC(C(C)C)C4 (stereo not given)
CCc1ccc(CN(Cc2ccco2)C(=O)COc2ccc(Cl)cc2C)cc1
Cc1cccc(-n2ncc3c(N4CCN(CCO)CC4)ncnc32)c1
O=C(Nc1nnc2n1CCS2)c1ccccc1
Cc1ccc(Cl)cc1NC(=O)N1CCc2cc(S(=O)(=O)N3CCC(C)CC3)ccc21
CCOC(=O)c1cc(-c2ccc(OC)cc2)n(CCC(=O)Nc2ccc(OC)cc2OC)c1C
CCOc1ccc(C(=O)Nc2ccc3nc(SCC(=O)N(C)c4ccccc4)sc3c2)cc1
COc1cccc(-c2nc(SCC(=O)NC3CCCC3)c(-c3ccc(F)cc3)[nH]2)c1
COc1cc(-c2nnc(SCC(=O)Oc3ccc(C)cc3C)o2)cc(OC)c1OC
COc1ccc(NC(=O)CN(c2ccccc2OC)S(C)(=O)=O)c(OC)c1
COc1ccc(C2=C(C)C(=O)N(Cc3ccc(C(=O)Nc4ccc(C)c(C)c4)cc3)S2(=O)=O)cc1
Cn1c(=O)cc(OCC(=O)N2CCN(c3ccc(F)cc3)CC2)c2ccccc21
O=S(=O)(c1ccccc1)c1nc(-c2ccccc2)oc1N1CCN(c2cccc(Cl)c2)CC1
Cc1c(Cl)cccc1NC(=O)C(C)N(c1ccccc1)S(C)(=O)=O (stereo not given)
